Among all 150,000 compounds or so, about 540 (0.36%) showed an effect of 50% or more. Some of the results follow.

This test relates to Plasmodium falciparum. The experiment in a line: Primary screen in NF54 nanoGlo assay, in single point, at 2uM, 72h; a lower Z score goes with more inhibition. The test is classed as functional, Erythrocyte. The conditions noted are these: timepoint 72 hour.
A word on the % Inhibition: it is the drop in the measured response relative to a control, in per cent. Regarding `CS(=O)(=O)N1CCC[C@H]1C(=O)N1CCC2(CC1)Cc1cccc(c1)Oc1cccc(c1)CCNC2=O`, the “% Inhibition” value was determined as 9% and the Z score is reported as -1.21.

Regarding `CCC(=O)N1CCc2ccc(OCc3ccc(C(=O)N(C)Cc4ccccc4)o3)cc2[C@@H]1c1cccc(C)c1`, the “% Inhibition” value was -18% and the Z score was 1.71.

On to `CCN1CCC(CNC(=O)c2ccc(O)cc2C)(N(C)C)CC1`, for which the “% Inhibition” value was -7% and the Z score is given as 0.67.

Consider `COCCN(C(=O)NCc1c(C)cc(C)[nH]c1=O)C1CC1`, for which the “% Inhibition” value is on record as -19% and the Z score is reported as 1.7.

With `O=C(NCCc1ccc[nH]1)C1CC1c1ccc(F)c(F)c1` (configuration not stated), the “% Inhibition” value is -12% and the Z score stood at 1.23.

Turning to `Cc1ccc(=O)n(CC(=O)N(CC(F)(F)F)c2ccccc2)n1`, the “% Inhibition” value is -18% and the Z score worked out at 3.42.

As for `CC(C(=O)NCC1CCCO1)S(=O)(=O)CC(C)(C)C` (configuration not stated), the “% Inhibition” value was -5% and the Z score was 0.92.

Consider `CCc1n[nH]c2c1CN(Cc1scnc1C)CC2`, for which the “% Inhibition” value is -4% and the Z score amounted to 0.59.

With `Cc1nc2c(C(=O)N3CCC4(CC3)Cc3cn(nn3)CCCOc3ccc(cc3)CCNC4=O)cccc2[nH]1`, the “% Inhibition” value was -3% and the Z score is 0.63.

On to `Cc1scc(C(=O)NCCN2CCOCC2)c1C`, for which the “% Inhibition” value is given as -8% and the Z score came out at 0.74.

With `NC(=O)c1ccc(N2CCCCC2)c(N2C(=O)c3c(Cl)c(Cl)c(Cl)c(Cl)c3C2=O)c1`, the “% Inhibition” value is given as 13% and the Z score is reported as -2.46.

Regarding `NC(=O)C1CCN(C(=O)c2cnn(-c3ncc4c(n3)-c3ccccc3CCC4)c2C2CC2)CC1`, the “% Inhibition” value was -8% and the Z score was 1.12.

On to `O=C([C@H]1CCN(c2cnn(Cc3ccccc3)c(=O)c2)C1)N1CCOCC1`, for which the “% Inhibition” value is listed as -7% and the Z score is 0.96.

With `Nc1ccnc(CN2CCC[C@H](c3n[nH]c(-c4ccccc4)n3)C2)n1`, the “% Inhibition” value was 14% and the Z score was -1.93.

As for `O=S(=O)(N1CCOCC1)N(Cc1cscn1)c1ccccc1`, the “% Inhibition” value was 0% and the Z score is reported as -0.02.

`CCN(C)C(=O)c1cccc(Nc2c(Oc3ccc4c(c3)OCO4)cnn(-c3ccc(C)cc3)c2=O)c1`: the “% Inhibition” value is on record as -7% and the Z score is reported as 0.89.

On to `Cc1c(C(=O)NC[C@H]2CCCN(CC(C)C)C2)cnn1C1CCCC1`, for which the “% Inhibition” value is -14% and the Z score is on record as 1.53.

As to `CCOCC(=O)N1CCC(c2ccsc2)CC1`, the “% Inhibition” value is -11% and the Z score was 1.64.

With `Cc1n[nH]c(C)c1CNCCc1ccsc1`, the “% Inhibition” value was -6% and the Z score is given as 0.79.

As to `O=C(O)c1ccc(CNC(=O)C2CC23CCc2ccccc23)s1` (configuration not stated), the “% Inhibition” value is -2% and the Z score is on record as 0.34.

With `O=C(Cn1c(CN2CCCCCC2)nc2ccccc21)N1CCCCCC1`, the “% Inhibition” value is reported as -10% and the Z score is listed as 1.48.

In the case of `O=S(=O)(Nc1nc2c(s1)CCCC2)c1ccc2ccccc2c1`, the “% Inhibition” value was -5% and the Z score is 0.56.

For the molecule `COc1cc(NS(=O)(=O)c2cc3c(cc2Br)C[C@H](C)N3C(C)=O)cc(OC)c1`, the “% Inhibition” value is -5% and the Z score was found to be 0.74.

On to `Cc1ccc(S(=O)(=O)NCC(=O)OCC(=O)N2CCCC2)cc1C`, for which the “% Inhibition” value is -7% and the Z score turned out to be 1.

Take `Cc1ccn2c(NC(=O)CCc3ccccc3)c(CCc3ccccc3)nc2c1`: the “% Inhibition” value is recorded as -9% and the Z score was determined as 1.65.

Turning to `O=C(c1cscn1)N1CC[C@H](Oc2cnsn2)C1`, the “% Inhibition” value was -7% and the Z score is 1.31.

On to `Cc1ccncc1CC(=O)NCC1(c2ccc(Br)cc2Cl)CC1`, for which the “% Inhibition” value is given as -2% and the Z score came to 0.19.

For the molecule `c1cnc2c(CN3CC[C@@]4(CCCN(CC5CC5)C4)C3)cccc2c1`, the “% Inhibition” value worked out at 8% and the Z score is given as -1.1.

On to `CC(C)(CC(N)=O)NC(=O)c1cscn1`, for which the “% Inhibition” value was -2% and the Z score was 0.31.

As to `C[C@@H]([C@H](O)c1ccc(O)cc1)n1cnc2nccnc2c1=O`, the “% Inhibition” value is reported as -12% and the Z score worked out at 2.35.

With `CCCc1nn(-c2ccccc2Cl)c(C)c1C(=O)NCc1ccccn1`, the “% Inhibition” value is given as -1% and the Z score is on record as 0.28.

As to `CC(C)C[C@H](NC(=O)c1cccnc1)c1nc2ccccc2[nH]1`, the “% Inhibition” value was -19% and the Z score is given as 2.4.

Consider `CCn1cc(CN2CCC[C@@]3(CO)CN(c4cnccn4)CC[C@H]23)cn1`, for which the “% Inhibition” value is -5% and the Z score came to 0.99.

Consider `Cc1cccc(C(=O)NCCCCN2CCOCC2)n1`, for which the “% Inhibition” value was -4% and the Z score came to 0.52.

As for `O=C([C@H](c1ccccc1)n1cnnn1)N1CC[C@@]2(O)CCCC[C@H]2C1`, the “% Inhibition” value turned out to be 6% and the Z score is -0.67.

For `Cc1ccc(C)c(CN(C)C(=O)c2cn3c(n2)CCC3)c1`, the “% Inhibition” value is reported as -5% and the Z score is on record as 0.66.

With `CCOc1cc(C(=O)N(Cc2ccc(OC(F)F)c(OC)c2)C2CC2)ccc1OCc1ccccn1`, the “% Inhibition” value is 4% and the Z score is given as -0.41.

`Oc1cncc(-c2nc(-c3cc(F)c(F)c(F)c3)no2)c1`: the “% Inhibition” value is reported as -11% and the Z score is 1.43.

In the case of `CC(CO)(NCC1CCOC1)c1cccc(O)c1` (configuration not stated), the “% Inhibition” value is -9% and the Z score is listed as 1.33.

`Cn1cc([C@@H](NC(=O)c2ccc(-n3cnnn3)cc2)C2CC(O)C2)cn1` (some centres not stated): the “% Inhibition” value was -5% and the Z score is reported as 0.5.

As to `Cc1cncc(CCC(=O)N2C[C@H](CS(N)(=O)=O)[C@@H](C)C2)c1`, the “% Inhibition” value is listed as 12% and the Z score is -1.74.

The values are drawn from ChEMBL document CHEMBL4888484, “Replenishing the malaria drug discovery pipeline: Screening and hit evaluation of the MMV Hit Generation Library 1 (HGL1) against asexual blood stage Plasmodium falciparum ,using a nano luciferase reporter read-out” (2022).
